Data on one molecule can be found in PubChem BioAssay (NCI).

For the experiment, the system named is UACC-62 melanoma. Briefly: NCI-60 one-dose screen, 48 h (100 = growth as untreated, 0 = no growth, -100 = all killed). The conditions noted are these: 0.25 µM.

Some compounds were tested as several samples or in several runs, with calls that do not always agree.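 Percent growth is the endpoint: 0 to 100 indicates growth inhibition (40 means 60% inhibition), 0 means no net growth, and negative values indicate cell death.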 The source holds more than one record for some entries. Only these are listed. Rule for the calls: active = growth percent below 10; inactive = the rest. An entry can have further records. The screen tested this drug many times, at the concentration stated with the values; one value stands for one run. Signs of the kind (2×) count equal records among those shown.

With `COc1cccc2c1C(=O)c1c(O)c3c(c(O)c1C2=O)C[C@@](O)(C(=O)CO)C[C@@H]3OC1CC(N)C(O)C(C)O1` (stereo partly specified), the growth result (runs of 2007) was “inactive: 18.8, 38.7, 36.9, 26.8, 30.9, 29.1 (2×), 28.9, 34, 25, 31.7, 39.9, 34.8, 52.4, 25.7, 42.5, 13.6, 22.3, 30.4, 43.4, 26.1, 23.1 (2×), 62.2, 47.4, 35.5, 32.4, 35.1, 34.3, 19.3, 37.3, 43.2, 28.6, 25.6, 15.9, 43.6, 31.6, 35.6, 40.5, 41.7, 30.8% and active: -5.99%”; the growth entry (runs of 2008) was “inactive: 42.7, 31.5, 25.2, 27.7, 31.9, 27.2, 29.2, 22.3, 31.6, 37.3, 37.2, 16.1, 26.9, 20.8, 88.1, 31.3, 11.6, 20.7, 20.5, 28.6, 28, 35.6, 26.5, 14.8, 40.9, 21.1, 12.8, 11.2, 18, 29.3, 21.3, 24.4% and active: -4.87, 2.4, 0.892, 3.98, -27.2, -13.6, -0.803, -4.73, -2.81, 0.419, 1.71, -35.3, -26.7, -3.64, -4.12, -30.6, 3.06, 0.233, 8.07, 6.39%”; the growth entry (runs of 2009) is “inactive: 23.6, 25.2 (3×), 30.4, 21 (2×), 12.2, 35.7 (2×), 34.8, 31.9 (2×), 32.5, 31, 33, 37.4, 22.9, 26.6 (2×), 19.6 (2×), 30.7, 33.1, 34.9, 32.9, 37.3 (2×), 25.8, 28.9, 43.5, 36.5, 37.7, 34.5, 62.3, 51.8, 17, 48.6, 42.1, 19.3, 48.4, 43, 41.3, 39.8, 25.6, 29.8, 20.2, 15.7, 27.5, 28.2, 12.1, 20.9, 15, 30.8, 42.6, 19.2, 30.9, 40.8, 22.7, 30.5 (2×), 33.4, 43.2, 40.2, 28.4% and active: 8.07%, 3.17%”; the growth result (runs of 2010) is “inactive: 27.6, 33.9, 17.4, 39.9 (2×), 32.5, 21.9, 34.3, 37.7, 14.4, 32.6, 23.1, 35.5, 27.2, 37.3, 42.4, 41.7, 27.9, 35.1, 44.4, 45.7, 27.5, 23.3, 24.2, 26.1, 26, 27.4, 35.3, 16.7, 19.7, 30.1, 36.5, 28.6, 34.6, 36.1, 33.3, 26.9, 49.1, 29.2, 31.1, 28.7, 41.3, 26.2, 50.2, 42, 33.6, 35.7, 48.4, 53.4, 41.6, 38.4, 33.4% and active: 2.87%, 1.38%”; the growth result (runs of 2011) was “inactive: 30 (2×), 39.1, 31.2, 35 (2×), 42.3, 19.6, 36.9, 33.1, 29.4 (2×), 14.2, 38, 36.1, 43.1, 38.9 (2×), 40.9, 45.1, 51.9, 44.4, 30.9, 40.2 (2×), 35.4, 47.2, 52, 41.2, 49.2, 39.9, 41.3, 28.6, 42.5, 38.8, 35.7, 29.3, 30.5, 35.2, 19.9, 23.7, 17.9, 25.6, 24, 33.8, 33.4, 30.4, 23.3, 25.2, 28.9, 31.9, 20.9, 25.9, 36.5%”; the growth entry (runs of 2012) was “inactive: 28.1, 35.3, 28.6, 25.6, 35.5, 33.6, 40.1, 23.6, 18.9, 17.1, 20, 20.5, 30.7 (2×), 19.6, 22.5, 32.5, 30, 16.7, 11.3, 51.6, 36.4, 62, 58.8, 54.9, 50.1, 47.3, 48.6, 43.4, 39.7, 34.3, 50.6, 46.1, 37.4, 30.8, 36, 34.2, 45.6, 30.1, 51.5, 44.6, 47, 43.8, 55.1, 49.7, 48.7, 44, 49, 44.9, 47.8, 45.3, 49.3, 42.9, 53.7, 48.4, 42.6, 44.1, 29.8, 29.1, 27.8, 27.9, 38.6, 38.4, 31.9, 38.3, 39.4, 52.1, 42.8% and active: 6.4%, 7.77%”. In addition, the growth result was “inactive: 28.1, 32.9, 35.2, 29.2, 26, 47.9, 45.3, 49.5, 40.3, 50.1, 54.7, 42.5, 46.7, 49.9, 46.2, 48, 45.7, 36.5, 44.1, 49.1, 40.7, 40.8, 43.8 (2×), 41.6, 48.5, 45.4, 42.6, 34.8, 43.1, 37.2, 34.1, 33.7, 36, 29.1, 42.2, 37.7 (2×), 36.9, 38.6, 41.9, 38 (2×), 38.4, 38.7, 29.5, 32.4, 20.9, 26.6, 36.4, 30.9, 38.5, 24.6, 17, 31, 17.9, 38.8, 26.9, 12.8, 19.3, 17.5, 27.8, 23.9, 35.5% and active: -14.3, -1.39, 0.361, 1.61, -18.5, 6.08, -6.48, -3.96%” (runs of 2013); “inactive: 16.7, 29.2, 22.9, 32.1, 36.9, 16.3, 14.7, 21.8, 12.1, 20.2, 29.3, 30.3, 25, 27.9, 30.1, 33.4, 38, 33.7, 35.7, 31.2, 37.6, 13.3, 17.2, 15.3, 15.6, 17.1, 12.6, 11.4, 12.9, 14.1, 11.3, 11.1, 29.6, 24, 11.2, 14.4, 19.6, 14.8, 38.9, 15.4, 19.2, 16.1, 23.5, 35.9% and active: 6.07, 5.44, 6.76, 7.69, 5.29, 5.6, 7.37, 3.75, 3.44, 3.43, -6.44, -18.3, 9.05, 6.21, 8.55, 6.94, -26.1, 0.734, -33.7, -5.1, -6.35, 0.154, -0.0318, 5.99, 8.28, 4.33, -9.93, -6.3, -1.01, 8.38, 9.85, 1.03, -6.14%” (runs of 2014); “active: 3.48, -2.32, 1.21 (2×), 7.6, 3.1, 5.95, -6.92, -11, -8.06, -10.6, 7.66, -8.67, 8.28, 5.59, 7.18, 5.25, 7.53, 2.04, 1.07, 0.906, -0.368, 5.97, 3.82, 9.29, 7.44, 5.52, -4.56, 4.45, 9.11, 9.9, -3.88, -2.41, 5.9, 7.52, 5.09% and inactive: 24.3, 10.2, 30 (2×), 26.2, 12.4, 32.2, 10.4, 15 (2×), 16.1 (2×), 12.5, 11.1 (2×), 27.4, 30.2, 29.9, 17.1, 16.3, 26.7, 32.7, 13.7, 22.5, 18.8, 13.6, 20.9, 43.6, 23.4, 30.9, 14.1, 21.1, 25.2, 19.8, 19.9, 13.3, 47, 37.2, 40.3%” (runs of 2015); “inactive: 18.3, 16.5, 12.5, 37.6, 44.4, 40.4, 35.4, 37.1, 26.3, 34.8 (2×), 22.3, 27.7, 17.1, 25.7 (2×), 29.6, 14.6, 28.2, 35.7, 32.9, 19.3 (2×), 19.5 (3×), 18.7, 29.4, 30.8 (2×), 23.6, 25.8, 19.7, 15.6, 19.6, 17.4, 24.1, 13.9, 20.8, 38.3, 43.2, 41.2, 31.7, 41.5, 40.8, 29.3 (2×), 33.6, 24.2, 32.1, 16.1, 22.5, 27.9 (2×), 34.9 (2×), 31, 37.5, 27.4, 24.5 (2×), 21.5, 26.9, 41, 30.9, 35.6, 44.8, 38.9, 45.4, 43, 38.7, 39.3, 41.9, 42.5, 39.7, 30, 28.4, 30.2, 30.3, 25.6, 33.7, 32.8% and active: 9.18%” (runs of 2016); “inactive: 21.6, 24.9, 12.1, 14.7, 21 (2×), 18.6 (2×), 13.5, 22.4, 18.3 (2×), 22.2, 21.3 (2×), 12.5, 16.4, 23.2, 17.1, 11.7 (2×), 19.6 (2×), 13.3, 18, 14.2, 15.2, 15.9, 20.3 (2×), 11.9, 20.6, 32.5, 17.4, 24, 20.5, 18.5, 28.2, 31.9, 24.3, 19.7 (2×), 20.2, 21.5, 29.9, 11.3, 30.7 (2×), 35, 26.2, 19.3 (2×), 42.2, 44.8, 14, 23.8, 23.1, 15.8, 21.8, 15.7, 13.7, 26.8, 13.8, 16.1, 31.4% and active: 7.97, 9.71, 6.27, 8.09, 9.22, 9.2%” (runs of 2017).
